Experimental data: patent US20260224723A1, “ANTI-B7H3 ANTIBODY-DRUG CONJUGATE AND USE THEREOF” (Duality Biologics (Suzhou) Co., Ltd., priority 2022, published 2026)

Experiments:
[1] = target: T1, human 2IgB7H3 (Homo sapiens, UniProt Q5ZPR3); test: SPR binding affinity for human 2IgB7H3 (Biacore 8K); details: analyte human 2IgB7H3
T1 construct: His tag; purchased ACRO (ACROBiosystems) B73-H52E2
T1 sequence (Q5ZPR3 29-316 isoform Q5ZPR3-2 limits assumed): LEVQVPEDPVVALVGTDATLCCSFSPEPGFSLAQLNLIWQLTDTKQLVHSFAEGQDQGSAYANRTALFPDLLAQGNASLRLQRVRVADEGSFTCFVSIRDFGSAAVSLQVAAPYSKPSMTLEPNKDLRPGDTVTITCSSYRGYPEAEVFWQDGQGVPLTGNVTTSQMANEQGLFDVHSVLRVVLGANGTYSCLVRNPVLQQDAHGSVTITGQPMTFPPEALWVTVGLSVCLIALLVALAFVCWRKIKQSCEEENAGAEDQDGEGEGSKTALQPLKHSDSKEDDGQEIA
Method: (§1) The affinity of antibodies for human 2IgB7H3 was determined using surface plasmon resonance (SPR). The affinity of antibodies for human 2IgB7H3 was determined by Biacore 8K. An activator was prepared by mixing 400 mM EDC and 100 mM NHS (GE) immediately prior to injection into the channel. The CM5 sensor chip was activated for 420 seconds with the activator. Goat anti-human Fc IgG (30 μg/mL in 10 mM NaAc, pH 4.5) was then injected into the channel at a flow rate of 10 μL/min for 420 seconds. The chip was deactivated by 1 M ethanolamine hydrochloric acid. The antibodies diluted in running buffer (1×HBS-EP+) were injected into the channel at a flow rate of 10 μL/min for 30 seconds. Seven concentrations (500 nM, 250 nM, 125 nM, 62.5 nM, 31.25 nM, 15.625 nM, and 7.813 nM) of analyte human 2IgB7H3 were injected sequentially into the channel at a flow rate of 30 μL/min for an association phase of 120 seconds, followed by dissociation of 300 seconds. Glycine (10 mM, pH 1.5) was injected as regeneration buffer after the dissociation phase.
(§2) The sensorgrams for the reference channel and the buffer channel were subtracted from the test sensorgrams. The experimental data were fitted with a 1:1 binding model. The molecular weight of the human 2IgB7H3 used in the calculation was 25.2 kDa.
(§3) The experimental data were fitted by a 1:1 binding model bundled with the Biacore 8K evaluation software.

[2] = test system: cynomolgus monkey B7H3; test: SPR binding affinity for cynomolgus monkey B7H3 (Biacore 8K); details: analyte cynomolgus monkey B7H3
Method: as §1, with “cynomolgus monkey B7H3” for “human 2IgB7H3”, “Fe” for “Fc”, “Seven concentrations (500 nM, 250 nM, 125 nM, 62.5 nM, 31.25 nM, 15.625 nM, and 7.813 nM) of analyte human 2IgB7H3 were injected sequentially into the channel at a flow rate of 30 μL/min for an association phase of 120 seconds, followed by dissociation of 300 seconds.” left out
as §2, with “data for 6 analyte concentrations (50 nM, 25 nM, 12.5 nM, 6.25 nM, 3.125 nM, and 1.563 nM)” for “data”, “cynomolgus monkey B7H3” for “human 2IgB7H3”, “49” for “25.2”
as §3

[3] = test system: A375 human melanoma cells; test: A375 xenograft tumor-bearing mouse model; format: in vivo, mice
Method: 6- to 8-week-old female NOD/SCID mice (purchased from Jiangsu GemPharmatech Co., Ltd.) were used as test animals. 5×10^6 A375 human melanoma cells were inoculated subcutaneously into the right dorsa of 6- to 8-week-old female NOD/SCID mice. The growth of tumors was observed. When the volume of the tumors reached about 89 mm^3, the tumor-bearing mice were randomized into groups with 6 mice in each of the blank control group and the treatment groups. […] Doses administered were 1 mg/kg, 3 mg/kg and 10 mg/kg. The experiment ended on day 20.
At the end of the experiment, mice were euthanized and TGITV (relative tumor inhibition rate) was calculated. The TGITV (relative tumor inhibition rate) was calculated by the following formula:
[formula] • wherein, mean RTVtreat: mean RTV of dosing group; • mean RTVvehicle: mean RTV of vehicle group (in this example, the vehicle group is the group in which only normal saline was administered);
The RTV was calculated by the following formula:
[formula] • wherein, Vnt: tumor volume in n-numbered mouse on day t; • Vn0: tumor volume in n-numbered mouse on day 0; • RTVn: relative tumor volume in n-numbered mouse on day t.

B1: W301088-1.145.16-z3-p1-uIgG1KV320: humanized anti-B7H3 IgG1 antibody, heavy chain SEQ ID NO: 12, light chain SEQ ID NO: 13 (antibody)
heavy: QVQLQESGPGLVKPSQTLSLTCTVTDYSITGDYAWNWIRQHPGKGLEWIGYISYSGSTSYNPSLQSRVTISRDTSKNQFSLKLSSVTAADTAVYFCARSLGRRWYFVVWGQGTTVTVSSASTKGPSVFPLAPSSKSTSGGTAALGCLVKDYFPEPVTVSWNSGALTSGVHTFPAVLQSSGLYSLSSVVTVPSSSLGTQTYICNVNHKPSNTKVDKRV[not shown - human IgG1 Fc with changes]
light: DIVMTQSPDSLAVSLGERATINCKSSQSLLQSSNQKNYLAWYQQKPGQPPKLLIYFASTRESGVPDRFSGSGSGTDFTLTISSLQAEDVAVYYCQQHYSAPWTFGGGTKVEIKRTVAAPSVFIFPPSDEQLKSGTASVVCLLNNFYPREAKVQWKVDNALQSGNSQESVTEQDSKDSTYSLSSTLTLSKADYEKHKVYACEVTHQGLSSPVTKSFNRGEC
B1 showed a ka [1] of 303000 M⁻¹ s⁻¹, a kd [1] of 0.0141 s⁻¹ and a ka [2] of 527000 M⁻¹ s⁻¹. The kd [2] was 3.02e-05 s⁻¹.

B2: WBP301088-X2: antibody WBP301088 conjugated to linker-payload X2; the DAR6 batch was used in Examples 3-11 (conjugate)
heavy: QVQLQESGPGLVKPSQTLSLTCTVTDYSITGDYAWNWIRQHPGKGLEWIGYISYSGSTSYNPSLQSRVTISRDTSKNQFSLKLSSVTAADTAVYFCARSLGRRWYFVVWGQGTTVTVSSASTKGPSVFPLAPSSKSTSGGTAALGCLVKDYFPEPVTVSWNSGALTSGVHTFPAVLQSSGLYSLSSVVTVPSSSLGTQTYICNVNHKPSNTKVDKRV[not shown - human IgG1 Fc with changes]
light: B1 light
B2 was tested, and the “Relative tumor inhibition rate (TGITV)” value ([3]; 1 mpk i.v. single dose, D0) was 0.00%, the Tumor volume ([3]; 1 mpk i.v. single dose, D0) was 88.92 ± 8.64 mm^3 and the “Relative tumor inhibition rate (TGITV)” value ([3]; 1 mpk i.v. single dose, D3) was 45.31%. For the same molecule, the Tumor volume ([3]; 1 mpk i.v. single dose, D3) was 91.83 ± 5.88 mm^3, the “Relative tumor inhibition rate (TGITV)” value ([3]; 1 mpk i.v. single dose, D6) was 75.46% and the Tumor volume ([3]; 1 mpk i.v. single dose, D6) was 71.71 ± 11.17 mm^3. The “Relative tumor inhibition rate (TGITV)” value ([3]; 1 mpk i.v. single dose, D9) was 80.52%, the Tumor volume ([3]; 1 mpk i.v. single dose, D9) was 89.8 ± 17 mm^3 and the “Relative tumor inhibition rate (TGITV)” value ([3]; 1 mpk i.v. single dose, D13) was 79.33%. The Tumor volume ([3]; 1 mpk i.v. single dose, D13) was 152.36 ± 36.98 mm^3, the “Relative tumor inhibition rate (TGITV)” value ([3]; 1 mpk i.v. single dose, D16) was 74.28% and the Tumor volume ([3]; 1 mpk i.v. single dose, D16) was 244.50 ± 55.84 mm^3. For the same molecule, the “Relative tumor inhibition rate (TGITV)” value ([3]; 1 mpk i.v. single dose, D20) was 62.21%, the Tumor volume ([3]; 1 mpk i.v. single dose, D20) was 533.31 ± 87.51 mm^3 and the “Relative tumor inhibition rate (TGITV)” value ([3]; 3 mpk i.v. single dose, D0) was 0.00%. The Tumor volume ([3]; 3 mpk i.v. single dose, D0) was 88.77 ± 9.27 mm^3, the “Relative tumor inhibition rate (TGITV)” value ([3]; 3 mpk i.v. single dose, D3) was 55.27% and the Tumor volume ([3]; 3 mpk i.v. single dose, D3) was 78.50 ± 20.22 mm^3. For the same molecule, the “Relative tumor inhibition rate (TGITV)” value ([3]; 3 mpk i.v. single dose, D6) was 88.25%, the Tumor volume ([3]; 3 mpk i.v. single dose, D6) was 36.83 ± 9.16 mm^3 and the “Relative tumor inhibition rate (TGITV)” value ([3]; 3 mpk i.v. single dose, D9) was 96.69%. The Tumor volume ([3]; 3 mpk i.v. single dose, D9) was 17.21 ± 6.87 mm^3, the “Relative tumor inhibition rate (TGITV)” value ([3]; 3 mpk i.v. single dose, D13) was 98.95% and the Tumor volume ([3]; 3 mpk i.v. single dose, D13) was 9.25 ± 6.46 mm^3. The “Relative tumor inhibition rate (TGITV)” value ([3]; 3 mpk i.v. single dose, D16) was 96.22%, the Tumor volume ([3]; 3 mpk i.v. single dose, D16) was 35.24 ± 26.23 mm^3 and the “Relative tumor inhibition rate (TGITV)” value ([3]; 3 mpk i.v. single dose, D20) was 98.17%. For the same molecule, the Tumor volume ([3]; 3 mpk i.v. single dose, D20) was 32.16 ± 22.79 mm^3, the “Relative tumor inhibition rate (TGITV)” value ([3]; 10 mpk i.v. single dose, D0) was 0.00% and the Tumor volume ([3]; 10 mpk i.v. single dose, D0) was 88.87 ± 9.18 mm^3. For the same molecule, the “Relative tumor inhibition rate (TGITV)” value ([3]; 10 mpk i.v. single dose, D3) was 59.93%, the Tumor volume ([3]; 10 mpk i.v. single dose, D3) was 69.55 ± 11.66 mm^3 and the “Relative tumor inhibition rate (TGITV)” value ([3]; 10 mpk i.v. single dose, D6) was 90.91%. For the same molecule, the Tumor volume ([3]; 10 mpk i.v. single dose, D6) was 27.76 ± 4.21 mm^3, the “Relative tumor inhibition rate (TGITV)” value ([3]; 10 mpk i.v. single dose, D9) was 96.91% and the Tumor volume ([3]; 10 mpk i.v. single dose, D9) was 14.4 ± 1.39 mm^3. For the same molecule, the “Relative tumor inhibition rate (TGITV)” value ([3]; 10 mpk i.v. single dose, D13) was 99.89%, the “Relative tumor inhibition rate (TGITV)” value ([3]; 10 mpk i.v. single dose, D16) was 100.00% and the Tumor volume ([3]; 10 mpk i.v. single dose, D16) was 0.00 ± 0.00 mm^3. The “Relative tumor inhibition rate (TGITV)” value ([3]; 10 mpk i.v. single dose, D20) was 100.00%, the Tumor volume ([3]; 10 mpk i.v. single dose, D20) was 0.00 ± 0.00 mm^3 and the “anti-tumor activity (in words)” value ([3]; single dose, 1, 3 and 10 mg/kg) was “significant dose-dependent anti-tumor activity”.
